Measurements: the supplement of paper PMC11417369
The other results are listed elsewhere or left out.

Each sequence was assayed on PF3D7_0420300 AP2 domain 1 (GST-tagged) (assay: gcPBM binding intensity (ln(normalized median fluorescence intensity)); higher = stronger DNA binding).
Summary of the method: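 GST-fused DNA-binding domains of P. falciparum, expressed in E. coli, were applied at about 25 μg on average for 1 h to an Agilent 4 × 180k array of primer-extended double-stranded 36-bp intergenic genomic probes and negative controls. Binding intensity is the highest Masliner-normalised natural-log median intensity across replicate spots of either probe orientation, measured with Alexa488 anti-GST antibody and a 488 nm scan.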
For “TTTTTTTTTTTTTTTTATTTATATATATATATATAT [CACACA_negctrl_site582]”, the “gcPBM binding intensity (ln)” value was 9.1.
For “AAAAAAAATGAAAGGTGTACACATACAAACATAGAA [XGTACX_site3517]”, the “gcPBM binding intensity (ln)” value was 9.94.
“AAATATTTTTAGAGTGCATGTAATAAAAATATAATG [TGCATGCA_site19]” was tested, and the “gcPBM binding intensity (ln)” value was 9.26.
In the case of “GTGCAAAATATTTTTACACACAAATTTTTACAACAG [CACACA_site3357]”, the “gcPBM binding intensity (ln)” value is reported as 9.43.
With “AAAAATAAATAAGACACACACAAAAAAAAAAAAAAA [CACACA_site1432]” the “gcPBM binding intensity (ln)” value was 9.54.
With “AAATGAGATATAAAATGTACATATTGTAAGTAAACA [XGTACX_site1237]” the “gcPBM binding intensity (ln)” value was 9.33.
With “GGGATATATTATTATACACACATATATAAAAGCTTT [CACACA_site2445]” the “gcPBM binding intensity (ln)” value was 9.45.
With “TTAATTATATCAGGACGTACTAATATAAATATATAT [XGTACX_site8909]” the “gcPBM binding intensity (ln)” value was 9.04.
With “ATTATCTATCGTTTTTGTACTTACACCTTAATACAA [XGTACX_site7337]” the “gcPBM binding intensity (ln)” value was 9.58.
“ACTACGAATGGTAGAGTGCAGTCTGGAGAAAAGTAC [GTGCAC_site9681]” was tested, and the “gcPBM binding intensity (ln)” value was 9.33.
For “CTTTTTTTTTTTTTTGCGCACTGTTTAAAGGGAAAT [GTGCAC_site9815]”, the “gcPBM binding intensity (ln)” value was 9.25.
For “ATATATATATAATAAAGTACAAATTCTAAATGATAT [XGTACX_site570]”, the “gcPBM binding intensity (ln)” value was 9.4.
In the case of “TATCTTATGTCTGAAAGTACAAATTTTTTTCTACTT [XGTACX_site2208]”, the “gcPBM binding intensity (ln)” value is reported as 9.09.
In the case of “AAATATAATAATAATTTAAGAATCTAATATTTTATA [CACACA_negctrl_site831]”, the “gcPBM binding intensity (ln)” value is reported as 8.88.
“TACTATATCGATACCAGTACAGATTTATAAATAATA [XGTACX_site7491]” was tested, and the “gcPBM binding intensity (ln)” value was 9.09.
“TTATAAAAAAAAATAACACACAGACATAAGAATAAA [CACACA_site9383]” was tested, and the “gcPBM binding intensity (ln)” value was 9.95.
For “TATATTAAGTATAAGACACACATATAGTAATAGAAA [CACACA_site5176]”, the “gcPBM binding intensity (ln)” value was 9.5.
In the case of “GGTATACATATTAAATGTACATATTTTAACAATAAG [XGTACX_site4868]”, the “gcPBM binding intensity (ln)” value is reported as 9.05.
With “ATATAACTTTTCTTAACACACAAAAAACAAAAATAA [CACACA_site2380]” the “gcPBM binding intensity (ln)” value was 9.44.
With “AAGTGTCAAAGTTACACACACAAACTTGTCATTTTT [CACACA_site837]” the “gcPBM binding intensity (ln)” value was 9.75.
“ATATAATTATATAAATGTACTCATTCGTTATTTTGC [XGTACX_site6132]” was tested, and the “gcPBM binding intensity (ln)” value was 9.2.
In the case of “CAAAGATATATAAACACACAAATATAACATATATAC [CACACA_site7395]”, the “gcPBM binding intensity (ln)” value is reported as 9.69.
With “TATGAATATCTATACACACACATATATATACTCACT [CACACA_site1597]” the “gcPBM binding intensity (ln)” value was 9.9.
With “TATATTATTATATATTGTACTTTTTATATTTGCATT [XGTACX_site2978]” the “gcPBM binding intensity (ln)” value was 9.51.
In the case of TACACTTGTAATTGCGTGCACGAAGGATATATATAT, the “gcPBM binding intensity (ln)” value is reported as 9.3.
TATGTATATTTTTTTGTGCACATATATATATATATA was tested, and the “gcPBM binding intensity (ln)” value was 9.37.
With “ATTTTTTTTTTAAAATGTACATGAGAAATTGTATAT [XGTACX_site425]” the “gcPBM binding intensity (ln)” value was 9.04.
With “TTTCTTATATAAGTGTACTAAAATATATATATGCAA [GTGCAC_negctrl_site546]” the “gcPBM binding intensity (ln)” value was 9.
“TAAAAAAATAAATATACACACATATATAAATATGTA [CACACA_site6641]” was tested, and the “gcPBM binding intensity (ln)” value was 9.3.
For “TAACATAATATAGACACACACATGTACATATGCCAA [CACACA_site1842]”, the “gcPBM binding intensity (ln)” value was 9.76.
“TATATTATTAATTAAGCACACATTATTTTTATAATA [CACACA_site3982]” was tested, and the “gcPBM binding intensity (ln)” value was 9.06.
In the case of “TCGACAAATGTATATACACACATTTGTAACATAAAT [CACACA_site560]”, the “gcPBM binding intensity (ln)” value is reported as 9.39.
For “TATAAAGGTGAAATTTGTACATAGTCATTTTTTAAT [XGTACX_site4811]”, the “gcPBM binding intensity (ln)” value was 9.05.
TGACGAAAAAAAAGGGTGCTTAGTATAACTTTAAAG was tested, and the “gcPBM binding intensity (ln)” value was 9.08.
For “TTCTTTTTTAAACACACACACACAAGAAAATATATA [CACACA_site5680]”, the “gcPBM binding intensity (ln)” value was 10.1.
“TTTTTTTTAATTGTGATACGTATATTATTTTTTGAT [TGCATGCA_negctrl_site318]” was tested, and the “gcPBM binding intensity (ln)” value was 9.3.
In the case of “ATTTTTAATATTATTACACACACTAATAAAAAAAAA [CACACA_site8265]”, the “gcPBM binding intensity (ln)” value is reported as 9.51.
“ATATGTAAAGAAAAGTAAACACTAATTTTAAACAAT [CACACA_negctrl_site11]” was tested, and the “gcPBM binding intensity (ln)” value was 9.42.
“TATATATATGTGCAGTGTACTTTTTTTTTCTGTAAG [XGTACX_site3424]” was tested, and the “gcPBM binding intensity (ln)” value was 9.35.
“GAGAAGACATTACACAGTACCCAGGAAATCTACGGA [XGTACX_site1993]” was tested, and the “gcPBM binding intensity (ln)” value was 9.44.
In the case of “ATATATATATATATATGTACTTAATATTTCTTATTT [XGTACX_site6206]”, the “gcPBM binding intensity (ln)” value is reported as 9.21.
In the case of “ATTAAAACCAATTAAAAAAAATTTATAATGGAAGCA [TGCATGCA_negctrl_site273]”, the “gcPBM binding intensity (ln)” value is reported as 9.22.
For “TATTATTGTTGTTCATGTACACACTATAATAAAAGC [XGTACX_site8957]”, the “gcPBM binding intensity (ln)” value was 9.31.
“AATGACTAAATTTAAACACACAAGGGGAGTTTACTT [CACACA_site918]” was tested, and the “gcPBM binding intensity (ln)” value was 9.4.
For “GAGATAAAATAAAACACACACATATATATATATAAT [CACACA_site5246]”, the “gcPBM binding intensity (ln)” value was 9.95.
With “TTGTATTTTTAAATGACACACACATATATATATATA [CACACA_site8481]” the “gcPBM binding intensity (ln)” value was 9.63.
For “AAGTTATAAAAATAAAGTACAAAGTAGCTATTTTTT [XGTACX_site3144]”, the “gcPBM binding intensity (ln)” value was 9.21.
“ATAAATATAAAAAAATGTACATATAGTAATACATAC [XGTACX_site508]” was tested, and the “gcPBM binding intensity (ln)” value was 9.42.
“GACTTTTCATTTATAGTGCAAGTTTTTTTTTTTTTT [GTGCAC_site9698]” was tested, and the “gcPBM binding intensity (ln)” value was 9.54.
For “ATAAGTATAAGAATCAGTACACAGTTTCTACATACT [XGTACX_site5834]”, the “gcPBM binding intensity (ln)” value was 9.26.
“GAAATAAAAAGAAATGCATGTAATTTTTTTTTTTTT [TGCATGCA_site928]” was tested, and the “gcPBM binding intensity (ln)” value was 9.11.
For “TATATATCATTTAAAACACACAAAAAAAAAAGTTAT [CACACA_site6191]”, the “gcPBM binding intensity (ln)” value was 9.57.
In the case of “GTTATTTATAGACACACACACATGCATGCACATATA [CACACA_site6204]”, the “gcPBM binding intensity (ln)” value is reported as 10.1.
For “CATATGTTCATCATAGCACACATATATAAATTACAA [CACACA_site9177]”, the “gcPBM binding intensity (ln)” value was 9.28.
For “TATAGGTATGTATGTACACACAAAAAATGGAATATA [CACACA_site7704]”, the “gcPBM binding intensity (ln)” value was 9.83.
For “TATATATATATATATTGTACATAATGTATATATGTT [XGTACX_site3448]”, the “gcPBM binding intensity (ln)” value was 9.23.
With “CATATATATTTGTTCACACACACACCCAAAAAAAAA [CACACA_site2476]” the “gcPBM binding intensity (ln)” value was 9.99.
